Molecules are shown by their SMILES. About 2,200 (0.71%) of roughly 310,000 compounds showed an effect of 50% or more. The effect is printed as a negative number. The list shows a part of the results.

The target of this test is human ether-à-go-go-related gene (hERG) potassium channel (human, UniProt Q12809). The test can be described thus: primary screen, population patch clamp on CHO cells stably expressing hERG.
Chain of human ether-à-go-go-related gene (hERG) potassium channel (Q12809 whole entry, looked up): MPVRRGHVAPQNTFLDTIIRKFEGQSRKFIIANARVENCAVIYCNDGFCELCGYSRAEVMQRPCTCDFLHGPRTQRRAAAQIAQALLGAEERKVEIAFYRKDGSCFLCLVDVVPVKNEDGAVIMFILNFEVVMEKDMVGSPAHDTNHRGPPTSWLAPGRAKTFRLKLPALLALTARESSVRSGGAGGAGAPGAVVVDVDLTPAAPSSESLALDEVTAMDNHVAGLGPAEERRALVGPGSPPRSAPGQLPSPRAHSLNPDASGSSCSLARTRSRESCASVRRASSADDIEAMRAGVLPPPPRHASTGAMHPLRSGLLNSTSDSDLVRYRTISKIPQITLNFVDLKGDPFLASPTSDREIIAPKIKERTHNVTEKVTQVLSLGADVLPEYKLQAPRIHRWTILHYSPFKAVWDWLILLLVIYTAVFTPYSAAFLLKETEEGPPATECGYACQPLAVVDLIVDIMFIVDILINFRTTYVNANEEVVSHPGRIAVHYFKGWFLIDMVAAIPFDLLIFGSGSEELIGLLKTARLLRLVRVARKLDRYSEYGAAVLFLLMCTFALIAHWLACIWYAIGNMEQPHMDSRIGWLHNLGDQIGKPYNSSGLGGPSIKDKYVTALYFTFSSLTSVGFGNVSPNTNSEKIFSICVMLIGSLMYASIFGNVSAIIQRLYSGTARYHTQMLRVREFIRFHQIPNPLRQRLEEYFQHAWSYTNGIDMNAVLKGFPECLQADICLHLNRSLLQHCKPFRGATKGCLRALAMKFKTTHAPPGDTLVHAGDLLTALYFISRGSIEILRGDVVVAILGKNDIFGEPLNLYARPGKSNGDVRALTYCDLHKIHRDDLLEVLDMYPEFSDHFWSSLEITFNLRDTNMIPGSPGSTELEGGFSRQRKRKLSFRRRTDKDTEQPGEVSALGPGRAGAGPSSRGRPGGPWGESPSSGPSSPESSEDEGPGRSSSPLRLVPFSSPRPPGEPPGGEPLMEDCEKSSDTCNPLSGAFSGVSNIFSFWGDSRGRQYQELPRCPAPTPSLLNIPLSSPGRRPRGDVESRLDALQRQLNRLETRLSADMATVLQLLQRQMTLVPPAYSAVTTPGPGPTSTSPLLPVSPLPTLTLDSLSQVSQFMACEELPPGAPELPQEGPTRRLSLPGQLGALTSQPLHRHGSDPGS
In the case of `COc1ccc(C(=O)N2CCOC2CNC(=O)C(=O)NCCc2ccccc2OC)cc1` (centres unmarked), the “hERG current change (%, negative = inhibition) at 1uM” value turned out to be 8.1%. For `CCC(CC)C(=O)NCCc1cc2ccc(C)cc2[nH]c1=O` the value was 9.51%; for `Cn1c(=O)n(C)c2cc(NS(=O)(=O)c3ccccc3[N+](=O)[O-])ccc21`, 4.27%. Take `CC(C)(CO)CNC(=O)CCc1nnc(C2(c3ccc(Cl)cc3)CCC2)o1`: the “hERG current change (%, negative = inhibition) at 1uM” value was 11.8%. For `O=C(Nc1nccs1)c1ccc2c(c1)C(=O)N(Cc1cccnc1)C2=O` the value was 9.79%.

Take `CCCc1cc(=O)oc2cc(C)cc(OCC(=O)NC(Cc3c[nH]c4ccc(O)cc34)C(=O)O)c12` (centres unmarked): the “hERG current change (%, negative = inhibition) at 1uM” value is 13.8%. For `CC1CN(c2ccnc3cc(Cl)ccc23)CC(C)O1` (centres unmarked) the value was 5.7%; for `Cc1nn(CCCC(=O)O)c(C)c1[N+](=O)[O-]`, 12.5%. For `COC(=O)C1=C(c2c(C)noc2C)C[C@@H]2CC[C@H]1N2C(=O)NCCNC(C)=O` the value was 15.9%; for `CCCn1c(C2CCCN2c2nc(-c3ccc(C)cc3)cs2)nc2cc(Cl)c(N3CCCCC3)cc21` (centres unmarked), 16.9%; for `NC(=O)CSc1nc2c(sc3ccccc32)c(=O)n1CCCN1CCOCC1`, -25%. For `Cc1ccccc1NC(=O)NC1(C(=O)N2CCN(C)CC2)CCCCC1` the value was 15.3%. `Cc1nc(CCNC(=O)CC2C(=O)NCCN2Cc2ccccc2)nc2c1CCC2` (centres unmarked): the “hERG current change (%, negative = inhibition) at 1uM” value worked out at 21.7%. Regarding `O=C(NCC1CCCO1)c1ccc2c(c1)N(Cc1ccccc1)CCS2` (centres unmarked), the “hERG current change (%, negative = inhibition) at 1uM” value was determined as 13%. Turning to `Cn1c(Cc2ccccc2)nnc1SCC(=O)N1CCCCC1`, the “hERG current change (%, negative = inhibition) at 1uM” value is 7.77%. On to `Cc1cccc(N2CCN(C(=O)C(Cc3ccccc3)n3cccc3)CC2)c1C` (centres unmarked), for which the “hERG current change (%, negative = inhibition) at 1uM” value amounted to 11.8%. As to `O=C1Nc2ccccc2C1(O)Cc1ccccn1` (centres unmarked), the “hERG current change (%, negative = inhibition) at 1uM” value was 14%. `O=C(CCCCCCN1C(=O)c2ccccc2C1=O)NC1CCCCC1`: the “hERG current change (%, negative = inhibition) at 1uM” value was 18.1%. For `C=CCn1c(O)c(C(CC)=NCc2cc(OC)cc(OC)c2)c(=O)[nH]c1=O` the value was -5.67%. For `O=C(NCc1ccc(F)cc1)C(c1ccccc1)N(C(=O)c1csnn1)C1CC1` (centres unmarked) the value was 18.9%; for `CCOC(=O)C1=C(C)N(c2ccc(OC)cc2)C(=O)/C1=C\c1ccc(O)c(OCC)c1`, 13.5%.

As to `CCOC(=O)C1CCN(C(=O)COc2ccc(S(=O)(=O)N3CCOCC3)cc2)CC1`, the “hERG current change (%, negative = inhibition) at 1uM” value is reported as 12.8%. For `CC(C(=O)O)N1C(=O)c2cccc3cccc1c23` (centres unmarked) the value was 12%.

On to `CC(=O)c1c(C)[nH]c(C(=O)Nc2ccccc2Cl)c1C`, for which the “hERG current change (%, negative = inhibition) at 1uM” value is reported as -0.772%. For `Cc1cc(=O)n(C(C)(C)C)c(=O)n1Cc1ccccc1` the value was 8.56%; for `Cc1[nH]c(=S)c(C#N)c(C)c1Cc1ccccc1`, 11.7%; for `COc1cc(C(=O)NCCOc2cc(C)ccc2C(C)C)cc(OC)c1OC`, 11.2%. For `CC1CCN(CCNC(=O)CN(C)S(=O)(=O)c2cccc3nsnc23)CC1` the value was 3.12%. `Cc1cc2c(nn1)CCC/C2=N\O`: the “hERG current change (%, negative = inhibition) at 1uM” value is given as 5.18%. For `O=C(O)CCCCCN1C(=O)C(O)=C(C(=O)/C=C/c2ccccc2)C1c1cccc([N+](=O)[O-])c1` (centres unmarked) the value was 13.9%; for `O=C1CC(c2cccnc2)c2cc3c(cc2N1)OCCO3` (centres unmarked), 15.8%.

On to `Cc1ccc(C(C)C)cc1OCC(=O)NNC(=O)Nc1ccccc1`, for which the “hERG current change (%, negative = inhibition) at 1uM” value was determined as 19.8%. As for `COc1ccc(C)c(NC(=O)NCCc2cnc[nH]2)c1`, the “hERG current change (%, negative = inhibition) at 1uM” value came out at 8.46%.

As for `CCOC(=O)N1CCN(CCC(=O)Nc2cccc(C)c2)CC1.Cl`, the “hERG current change (%, negative = inhibition) at 1uM” value came to 14.8%. For `CCc1cccc(CC)c1NC(=O)COC(=O)CC1c2ccccc2CCN1S(=O)(=O)c1ccccc1` (centres unmarked) the value was 8.41%. For `COc1ccc(S(=O)(=O)N2CCN(C(=O)COc3ccccc3)CC2)cc1` the value was 1.96%. For `CCOC(=O)CN1C(=O)C(C)(C)Oc2ccc(C(=O)Nc3ccccc3OC)cc21` the value was 5.61%. For the compound `CN(C)S(=O)(=O)c1cc(NC(=O)COC(=O)Cc2cccc3ccccc23)ccc1Cl`, the “hERG current change (%, negative = inhibition) at 1uM” value is reported as 13.4%. For `COC(=O)c1nn(-c2ccccc2)c2nnc(Cc3ccc(C)cc3)c(=O)n12` the value was 7.99%.

Take `CCn1c(C)cc(/C=C2/NC(=O)N(c3ccccc3)C2=O)c1C`: the “hERG current change (%, negative = inhibition) at 1uM” value came out at 19.2%. As to `O=C(NN=C1CCCCCCC1)c1ccc2ccccc2n1`, the “hERG current change (%, negative = inhibition) at 1uM” value worked out at 3.15%. For `O=C(Nc1ccc(CN2CCOCC2)cc1)c1ccc(Cl)cc1Cl` the value was 10.5%; for `Cc1ccc(C(=O)C(OC(=O)c2c(C)cc(=O)oc2C)c2ccccc2)cc1` (centres unmarked), 19.8%; for `CC1=C(C#N)C(NC(=O)c2cccc(Cl)c2)(C(F)(F)F)C(=O)N1` (centres unmarked), 9.35%. For `O=C(CCCCn1c(=S)[nH]c2ccsc2c1=O)NCc1ccc2c(c1)OCO2`, the “hERG current change (%, negative = inhibition) at 1uM” value was 11.9%. For `CC(=O)Nc1nc(SCc2ccc(Cl)cc2Cl)n[nH]1` the value was 8.12%; for `CCc1cccc(C)c1NC(=O)CN(C)C1=NS(=O)(=O)c2ccccc21`, 2.13%; for `C/C=C(\C)C(=O)NCCN1C2=NC[C@H](Cc3ccccc3)N2C[C@@H]1Cc1ccc(OC)cc1`, -9.48%. For `COc1ccc(NC(=O)NCc2ccccn2)cc1OC` the value was -3.55%.

Consider `CC(C)N=C1CC(C)(C)CC(=O)/C1=C(/O)CCCN1C(=O)c2ccccc2C1=O`, for which the “hERG current change (%, negative = inhibition) at 1uM” value came out at 5.72%. For `CCOc1cccc(/C=C/c2cc(C(=O)O)c3ccccc3n2)c1OC` the value was 12.9%. Regarding `COCCCNC(=S)N1CCC(NC(=O)Nc2ccc(C)cc2)CC1`, the “hERG current change (%, negative = inhibition) at 1uM” value is 9.17%.

Regarding `Cn1c(=O)c2sccc2n(Cc2ccc(Br)cc2)c1=O`, the “hERG current change (%, negative = inhibition) at 1uM” value was found to be 15.3%.

In the case of `COc1cccc(N/C=C/C(=O)c2ccc(OC)c(OC)c2)c1`, the “hERG current change (%, negative = inhibition) at 1uM” value was determined as 5.81%. As for `COc1cc(Cl)c(C)cc1NC(=O)CSc1nnc(-c2ccccn2)n1Cc1ccco1`, the “hERG current change (%, negative = inhibition) at 1uM” value is recorded as 5.04%. For `CCOc1ccc(NC(=O)c2cc3c(C)nc4ccccc4c3o2)cc1` the value was 18.4%.

Values taken from paper PMC4336329 (PLoS ONE, 2015).
